Among all 210,000 compounds or so, about 5,900 (2.8%) were called active. The inconclusive results got no clear call from the source; some entries with a clear call stand among them for comparison. Calls follow the shape of the dose curve; as a rule, active = well fitted activation curve with a large enough effect; inconclusive = small, poorly fitted or top-dose-only effect; inactive = no such curve, though single readings can be large or run the other way. Potencies of inconclusive entries are doubtful fits and often do not repeat.
experiment: qHTS Assay for Enhancers of SMN2 Splice Variant Expression; conditions: HEK293 SMN2-luciferase splicing reporter, luminescence, 30-36 h; series mostly up to 46.1 µM; also: nearly all actives have a fitted effect of over 55% in size
Outline: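 HEK293 cells carry an SMN2 minigene-luciferase reporter in which exon 7 inclusion puts luciferase in frame. Cells were seeded at 2000 cells/well, attached for 10-12 hours, then exposed to compounds for 30-36 hours at 37C before ONE-Glo luminescence.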
Potency is read from the fitted curve at half-maximal effect; tags tell the direction and shape of the fitted curve.

Question: Which Potency does the source give for `Cn1c(N)c(C(=O)COC(=O)C2CCCC2)c(=O)n(C)c1=O` here?
Answer: inconclusive: 22.4 µM [activator, partial curve]

Question: With `CC1=C(C#N)C(c2ccc3ncccc3c2)C(C#N)=C(C)N1` as the compound, how does the Potency read?
Answer: inconclusive: 12.6 µM [activator, partial curve, poor fit]

Question: For `CCN(CC)c1ccc(C=Nc2cc(C)ccc2C)c(O)c1`, which Potency is on record?
Answer: inconclusive: 20 µM [activator, single point]

Question: For `O=C(Cc1ccccc1)NCC(=O)OCC(=O)c1cccc([N+](=O)[O-])c1`, which Potency is on record?
Answer: inconclusive: 2 µM [activator, full curve, poor fit]

Question: Which Potency does the source give for `Cc1ccc(NC(=O)CN(C)C(=O)CSc2nc(C)cs2)cc1` here?
Answer: inactive

Question: Which Potency does the source give for `O=C1c2cccc3cccc(c23)C(=O)N1CCc1ccccc1` here?
Answer: active: 14.1 µM

Question: With `Oc1cc(NCc2cccnc2)ccc1-c1nc2ccccc2o1` as the compound, how does the Potency read?
Answer: active: 11.2 µM

Question: With `Cc1ccc2[nH]c3c(c2c1)CC/C(=C/c1ccccc1)C3=O` as the compound, how does the Potency read?
Answer: inconclusive: 10 µM [activator, single point]

Question: For `O=C(CSc1ccc(F)cc1)Nc1ccc(Br)cc1`, which Potency is on record?
Answer: inconclusive: 8.91 µM [activator, partial curve, poor fit]

Question: For `CC(=O)NCCc1cc2ccc(C)cc2[nH]c1=O`, which Potency is on record?
Answer: inconclusive: 0.316 µM [activator, partial curve, poor fit]

Question: For `CCSCc1nc2ccccn2c1Br`, which Potency is on record?
Answer: inactive

Question: Which Potency does the source give for `CCOC(=O)c1ccc(N=Cc2nc(-c3ccccc3)oc2OC(C)=O)cc1` here?
Answer: inconclusive: 17.8 µM [activator, single point]

Question: For `Cc1ccccc1-n1c(C)cc(/C=C(\C#N)C(=O)NCC2CCCO2)c1C` (stereo not given), which Potency is on record?
Answer: inactive

Question: With `COc1cc(OC)cc(C(=O)N2CCN(c3ccccc3F)CC2)c1` as the compound, how does the Potency read?
Answer: inconclusive: 35.5 µM [activator, single point]

Question: For `O=S(=O)(Cc1ccccc1Cl)Nc1ccccn1`, which Potency is on record?
Answer: inconclusive: 6.31 µM [activator, partial curve, poor fit]

Question: With `CCOc1ccc(CCNC(=O)c2cc3c(-c4ccccc4F)nn(C)c3s2)cc1OCC` as the compound, how does the Potency read?
Answer: inactive

Question: For `COc1ccc(-n2c(=S)[nH]c3ccccc32)cc1`, which Potency is on record?
Answer: inconclusive: 35.5 µM [activator, single point]

Question: Which Potency does the source give for `Cn1c(CCN2CCCCCC2)nc2cc(NC(=O)Nc3ccccc3)ccc21` here?
Answer: inconclusive: 11.2 µM [activator, partial curve]

Question: For `COc1cc(/C=C2\N=C3CCCCCN3C2=O)ccc1O`, which Potency is on record?
Answer: inconclusive: 10 µM [activator, partial curve]

Question: For `Cc1cccc(-c2nnc3n2N=C(c2ccc(Br)cc2)CS3)c1`, which Potency is on record?
Answer: inconclusive: 14.1 µM [activator, partial curve]

From PubChem BioAssay AID1458 (National Center for Advancing Translational Sciences (NCATS), 2008)
